Laboratory results from the supplement of paper PMC4604168 (melanoma cell lines).
This is one part of the list. Repeats are few or missing, and single values can be far off.

These molecules were tested on MEL-HO (assay: cell count relative to DMSO control; melanoma cells; higher = more viable cells). Conditions: library dose: low library concentration; 72 h.
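Further: cell number obtained by counting DAPI-stained nuclei in high-throughput microscope images with image analysis software, screen run in 1,536-well plates.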

| SMILES | cell count |
| --- | --- |
| C=C(c1ccc(C(=O)O)cc1)c1cc2c(cc1C)C(C)(C)CCC2(C)C [Bexarotene] + N#Cc1c(O)c2c(-c3ccc(-c4ccccc4O)cc3)csc2[nH]c1=O [A769662] (first compound 2 µM, partner dose 2 µM) | 96.5% |
| C=C(c1ccc(C(=O)O)cc1)c1cc2c(cc1C)C(C)(C)CCC2(C)C [Bexarotene] + COc1ccc(-c2ccc3c(N4CCOCC4)nc(N4C[C@@H](C)O[C@@H](C)C4)nc3n2)cc1CO [KU0063794] (first compound 2 µM, partner dose 0.02 µM) | 91.6% |
| CCCS(=O)(=O)Nc1ccc(F)c(C(=O)c2c[nH]c3ncc(Cl)cc23)c1F + COc1ccc(COc2ccc(Cc3cnc(N)nc3N)cc2OC)cc1 [GW2580] (first compound 0.08 µM, partner dose 1 µM) | 92.6% |
